Some of the results follow. The list includes weakly bound sequences.

The experiment concerns the target T1, MBP-FoxP3dN (UniProt Q99JB6).
T1 sequence: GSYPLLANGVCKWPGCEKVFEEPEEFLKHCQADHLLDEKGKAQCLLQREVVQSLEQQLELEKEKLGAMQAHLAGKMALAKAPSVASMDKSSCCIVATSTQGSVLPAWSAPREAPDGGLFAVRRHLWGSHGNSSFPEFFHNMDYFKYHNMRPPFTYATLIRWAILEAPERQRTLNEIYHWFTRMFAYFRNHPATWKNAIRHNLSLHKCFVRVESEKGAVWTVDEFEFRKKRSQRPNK
In words: PD-seq (MBP pull-down with sequencing). The note with it: 20 mM Tris-HCl pH 7.5, 100 mM NaCl, 1.5 mM MgCl2, 0.4 uM protein, 0.1 uM dsDNA library, 30 min, room temperature, amylose pull-down; high values mean tight binding; double strand, one strand shown.
Take “GATGATTGTTCTCCCAGCTGATGAATTAGGCAAGTCGAGTAAACAAATTTTCCTAATCTTTCTGTTCAAGCGCCATCTAC”: the binding signal (RPM ratio (pull-down/input)) came out at 1.19.

As for “GATGATTGTTCTCCCAGCTGATGAATTTCACGGTTCGAGTAAACAAATTTTCCTAATCTTTCTGTTCAAGCGCCATCTAC”, the binding signal (RPM ratio (pull-down/input)) is 0.309.

In the case of “GATGATTGTTCTCCCAGCTGATGAATTGATATATTCGAGTAAACAAATTTTCCTAATCTTTCTGTTCAAGCGCCATCTAC”, the binding signal (RPM ratio (pull-down/input)) came to 0.951.

On to “GATGATTGTTCTCCCAGCTGATGAATTTAGCCATTCGAGTAAACAAATTTTCCTAATCTTTCTGTTCAAGCGCCATCTAC”, for which the binding signal (RPM ratio (pull-down/input)) is 4.73.

As to “GATGATTGTTCTCCCAGCTGATGAATTGCAGGGGTCGAGTAAACAAATTTTCCTAATCTTTCTGTTCAAGCGCCATCTAC”, the binding signal (RPM ratio (pull-down/input)) amounted to 0.772.

Consider “GATGATTGTTCTCCCAGCTGATGAATTCGGTGCATCGAGTAAACAAATTTTCCTAATCTTTCTGTTCAAGCGCCATCTAC”, for which the binding signal (RPM ratio (pull-down/input)) stood at 1.39.

As to “GATGATTGTTCTCCCAGCTGATGAATTCTAGTAATCGAGTAAACAAATTTTCCTAATCTTTCTGTTCAAGCGCCATCTAC”, the binding signal (RPM ratio (pull-down/input)) stood at 0.547.

For “GATGATTGTTCTCCCAGCTGATGAATTGGGGCGCTCGAGTAAACAAATTTTCCTAATCTTTCTGTTCAAGCGCCATCTAC”, the binding signal (RPM ratio (pull-down/input)) worked out at 0.419.

Consider “GATGATTGTTCTCCCAGCTGATGAATTATTCGAGTCGAGTAAACAAATTTTCCTAATCTTTCTGTTCAAGCGCCATCTAC”, for which the binding signal (RPM ratio (pull-down/input)) was 0.319.

In the case of “GATGATTGTTCTCCCAGCTGATGAATTAACGCGGTCGAGTAAACAAATTTTCCTAATCTTTCTGTTCAAGCGCCATCTAC”, the binding signal (RPM ratio (pull-down/input)) is 0.438.

For the sequence “GATGATTGTTCTCCCAGCTGATGAATTATGACATTCGAGTAAACAAATTTTCCTAATCTTTCTGTTCAAGCGCCATCTAC”, the binding signal (RPM ratio (pull-down/input)) is 2.11.

Turning to “GATGATTGTTCTCCCAGCTGATGAATTTAAGGTATCGAGTAAACAAATTTTCCTAATCTTTCTGTTCAAGCGCCATCTAC”, the binding signal (RPM ratio (pull-down/input)) came out at 0.6.

As for “GATGATTGTTCTCCCAGCTGATGAATTGTCTATTTCGAGTAAACAAATTTTCCTAATCTTTCTGTTCAAGCGCCATCTAC”, the binding signal (RPM ratio (pull-down/input)) came out at 1.18.

Regarding “GATGATTGTTCTCCCAGCTGATGAATTACTGGGGTCGAGTAAACAAATTTTCCTAATCTTTCTGTTCAAGCGCCATCTAC”, the binding signal (RPM ratio (pull-down/input)) was determined as 0.231.

Take “GATGATTGTTCTCCCAGCTGATGAATTATCGGGCTCGAGTAAACAAATTTTCCTAATCTTTCTGTTCAAGCGCCATCTAC”: the binding signal (RPM ratio (pull-down/input)) was 0.244.

On to “GATGATTGTTCTCCCAGCTGATGAATTATAGCGCTCGAGTAAACAAATTTTCCTAATCTTTCTGTTCAAGCGCCATCTAC”, for which the binding signal (RPM ratio (pull-down/input)) amounted to 0.581.

For the sequence “GATGATTGTTCTCCCAGCTGATGAATTCAACATGTCGAGTAAACAAATTTTCCTAATCTTTCTGTTCAAGCGCCATCTAC”, the binding signal (RPM ratio (pull-down/input)) was 0.528.

“GATGATTGTTCTCCCAGCTGATGAATTCATCTAATCGAGTAAACAAATTTTCCTAATCTTTCTGTTCAAGCGCCATCTAC”: the binding signal (RPM ratio (pull-down/input)) was determined as 0.294.

Take “GATGATTGTTCTCCCAGCTGATGAATTATCGATATCGAGTAAACAAATTTTCCTAATCTTTCTGTTCAAGCGCCATCTAC”: the binding signal (RPM ratio (pull-down/input)) amounted to 0.494.

As for “GATGATTGTTCTCCCAGCTGATGAATTGGTTAGATCGAGTAAACAAATTTTCCTAATCTTTCTGTTCAAGCGCCATCTAC”, the binding signal (RPM ratio (pull-down/input)) was found to be 0.342.

“GATGATTGTTCTCCCAGCTGATGAATTGTATTTCTCGAGTAAACAAATTTTCCTAATCTTTCTGTTCAAGCGCCATCTAC”: the binding signal (RPM ratio (pull-down/input)) was found to be 2.06.

For “GATGATTGTTCTCCCAGCTGATGAATTATGTAATTCGAGTAAACAAATTTTCCTAATCTTTCTGTTCAAGCGCCATCTAC”, the binding signal (RPM ratio (pull-down/input)) came to 3.03.

Regarding “GATGATTGTTCTCCCAGCTGATGAATTTCGATCATCGAGTAAACAAATTTTCCTAATCTTTCTGTTCAAGCGCCATCTAC”, the binding signal (RPM ratio (pull-down/input)) was determined as 0.513.

As to “GATGATTGTTCTCCCAGCTGATGAATTAATCGACTCGAGTAAACAAATTTTCCTAATCTTTCTGTTCAAGCGCCATCTAC”, the binding signal (RPM ratio (pull-down/input)) was 0.362.

As for “GATGATTGTTCTCCCAGCTGATGAATTGGGAACTTCGAGTAAACAAATTTTCCTAATCTTTCTGTTCAAGCGCCATCTAC”, the binding signal (RPM ratio (pull-down/input)) is 0.252.

For “GATGATTGTTCTCCCAGCTGATGAATTCTGCGCGTCGAGTAAACAAATTTTCCTAATCTTTCTGTTCAAGCGCCATCTAC”, the binding signal (RPM ratio (pull-down/input)) worked out at 2.64.

For “GATGATTGTTCTCCCAGCTGATGAATTCTGGAGCTCGAGTAAACAAATTTTCCTAATCTTTCTGTTCAAGCGCCATCTAC”, the binding signal (RPM ratio (pull-down/input)) came out at 0.188.

“GATGATTGTTCTCCCAGCTGATGAATTGTACCGGTCGAGTAAACAAATTTTCCTAATCTTTCTGTTCAAGCGCCATCTAC”: the binding signal (RPM ratio (pull-down/input)) was 0.355.

In the case of “GATGATTGTTCTCCCAGCTGATGAATTGACCGGGTCGAGTAAACAAATTTTCCTAATCTTTCTGTTCAAGCGCCATCTAC”, the binding signal (RPM ratio (pull-down/input)) was 0.205.

As for “GATGATTGTTCTCCCAGCTGATGAATTTGTGGAGTCGAGTAAACAAATTTTCCTAATCTTTCTGTTCAAGCGCCATCTAC”, the binding signal (RPM ratio (pull-down/input)) turned out to be 1.79.

As for “GATGATTGTTCTCCCAGCTGATGAATTTTAGGTATCGAGTAAACAAATTTTCCTAATCTTTCTGTTCAAGCGCCATCTAC”, the binding signal (RPM ratio (pull-down/input)) turned out to be 0.581.

For “GATGATTGTTCTCCCAGCTGATGAATTCGCCCGATCGAGTAAACAAATTTTCCTAATCTTTCTGTTCAAGCGCCATCTAC”, the binding signal (RPM ratio (pull-down/input)) worked out at 0.252.

As for “GATGATTGTTCTCCCAGCTGATGAATTAGATATCTCGAGTAAACAAATTTTCCTAATCTTTCTGTTCAAGCGCCATCTAC”, the binding signal (RPM ratio (pull-down/input)) worked out at 0.983.

For the sequence “GATGATTGTTCTCCCAGCTGATGAATTCGTTCATTCGAGTAAACAAATTTTCCTAATCTTTCTGTTCAAGCGCCATCTAC”, the binding signal (RPM ratio (pull-down/input)) was 0.386.

With “GATGATTGTTCTCCCAGCTGATGAATTCACCAGATCGAGTAAACAAATTTTCCTAATCTTTCTGTTCAAGCGCCATCTAC”, the binding signal (RPM ratio (pull-down/input)) came to 0.179.

As for “GATGATTGTTCTCCCAGCTGATGAATTAAAAACCTCGAGTAAACAAATTTTCCTAATCTTTCTGTTCAAGCGCCATCTAC”, the binding signal (RPM ratio (pull-down/input)) was 0.269.

For “GATGATTGTTCTCCCAGCTGATGAATTGGAAGCTTCGAGTAAACAAATTTTCCTAATCTTTCTGTTCAAGCGCCATCTAC”, the binding signal (RPM ratio (pull-down/input)) amounted to 0.262.

With “GATGATTGTTCTCCCAGCTGATGAATTTCTTCCCTCGAGTAAACAAATTTTCCTAATCTTTCTGTTCAAGCGCCATCTAC”, the binding signal (RPM ratio (pull-down/input)) came out at 0.217.

With “GATGATTGTTCTCCCAGCTGATGAATTGATTTGGTCGAGTAAACAAATTTTCCTAATCTTTCTGTTCAAGCGCCATCTAC”, the binding signal (RPM ratio (pull-down/input)) amounted to 2.12.

Regarding “GATGATTGTTCTCCCAGCTGATGAATTGAATGGTTCGAGTAAACAAATTTTCCTAATCTTTCTGTTCAAGCGCCATCTAC”, the binding signal (RPM ratio (pull-down/input)) turned out to be 0.743.

The values above are taken from paper PMC12820563.
